Assay results reported in article PMC9911399, “Two distinct binding modes provide the RNA-binding protein RbFox with extraordinary sequence specificity”.
Substitutions are numbered along the chain they refer to; changes in the protein carry UniProt numbers. This is one part of the list.

T1: RBFOX1 RRM (Homo sapiens, UniProt Q9NWB1 109-208)
T1 sequence: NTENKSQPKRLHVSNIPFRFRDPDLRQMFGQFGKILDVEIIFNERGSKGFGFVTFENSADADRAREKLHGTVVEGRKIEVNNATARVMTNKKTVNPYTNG

B1: UAUAACU (DNA:RNA)
RNA: GGGAGACCGGAAUUCAGAUUGUCCUAUAACUUUAAAUCCCGUCGUAGCCACCA
DNA 1: CAATCTGAATTCCGGTCTCCC
DNA 2: TGGTGGCTACGACGGGATT
B2: GGCGGAC (DNA:RNA)
RNA: GGGAGACCGGAAUUCAGAUUGUCCGGCGGACUUAAAUCCCGUCGUAGCCACCA
DNA 1: CAATCTGAATTCCGGTCTCCC
DNA 2: TGGTGGCTACGACGGGATT
B3: CUUCGAU (DNA:RNA)
RNA: B2 RNA with G25C, G26U, C27U, G28C, C31U
DNA 1: CAATCTGAATTCCGGTCTCCC
DNA 2: TGGTGGCTACGACGGGATT
B4: UCACUGC (DNA:RNA)
RNA: B2 RNA with G25U, G26C, C27A, G28C, G29U, A30G
DNA 1: CAATCTGAATTCCGGTCTCCC
DNA 2: TGGTGGCTACGACGGGATT
B5: CGUUUGC (DNA:RNA)
RNA: B2 RNA with G25C, C27U, G28U, G29U, A30G
DNA 1: CAATCTGAATTCCGGTCTCCC
DNA 2: TGGTGGCTACGACGGGATT
B6: CAGUCCC (DNA:RNA)
RNA: B1 RNA with U25C, U27G, A28U, A29C, U31C
DNA 1: CAATCTGAATTCCGGTCTCCC
DNA 2: TGGTGGCTACGACGGGATT
B7: AUACAAC (DNA:RNA)
RNA: B2 RNA with G25A, G26U, C27A, G28C, G29A
DNA 1: CAATCTGAATTCCGGTCTCCC
DNA 2: TGGTGGCTACGACGGGATT
B8: GGUCUGG (DNA:RNA)
RNA: B2 RNA with C27U, G28C, G29U, A30G, C31G
DNA 1: CAATCTGAATTCCGGTCTCCC
DNA 2: TGGTGGCTACGACGGGATT
B9: CCGUGCC (DNA:RNA)
RNA: B2 RNA with G25C, G26C, C27G, G28U, A30C
DNA 1: CAATCTGAATTCCGGTCTCCC
DNA 2: TGGTGGCTACGACGGGATT

Biological target: T1, RBFOX1 RRM
Assay: EMSA; HiTS-Eq, 1 nM pool, 10 min; buffer printed only for the single-RNA assays: 10 mM Tris pH 7.5, 150 mM NaCl, 3.4 mM EDTA, 0.001% NP-40, 30 C
Settings: tags: His6 N-terminal (pET28a); label: 5' 32P
Summary of the method: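 Purified RbFox RRM, wild type or mutant, was incubated for 10 min in 50 µL with 1 nM of a 5′-radiolabelled RNA pool carrying 7 randomized nucleotides, whose flanks were annealed to DNA oligonucleotides, over a series of increasing protein concentrations. Unbound RNA was resolved on 8% native PAGE, cut out, reverse-transcribed, barcoded by PCR and sequenced on an Illumina HiSeq 2500. Relative association constants were derived from changes in read counts for each RNA species versus the control reaction and normalised to the cognate motif.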

Row | Binder | binding signal
1 | B1 | 0.00214 KA relative to UGCAUGU
2 | B2 | 0.016 KA relative to UGCAUGU
3 | B3 | 0.0134 KA relative to UGCAUGU
4 | B4 | 0.00873 KA relative to UGCAUGU
5 | B5 | 0.019 KA relative to UGCAUGU
6 | B6 | 0.00229 KA relative to UGCAUGU
7 | B7 | 0.000475 KA relative to UGCAUGU
8 | B8 | 0.0102 KA relative to UGCAUGU
9 | B9 | 0.0134 KA relative to UGCAUGU
